Laboratory results from PMC4336329 (PLoS ONE, 2015).
In all, about 310,000 compounds went through this assay and about 2,200 (0.71%) showed an effect of 50% or more. Effects have a minus sign here. This is one part of the list.

The compounds below were run against human ether-à-go-go-related gene (hERG) potassium channel (human, UniProt Q12809) (assay: primary screen, population patch clamp on CHO cells stably expressing hERG).
Sequence of human ether-à-go-go-related gene (hERG) potassium channel (Q12809 whole entry, looked up): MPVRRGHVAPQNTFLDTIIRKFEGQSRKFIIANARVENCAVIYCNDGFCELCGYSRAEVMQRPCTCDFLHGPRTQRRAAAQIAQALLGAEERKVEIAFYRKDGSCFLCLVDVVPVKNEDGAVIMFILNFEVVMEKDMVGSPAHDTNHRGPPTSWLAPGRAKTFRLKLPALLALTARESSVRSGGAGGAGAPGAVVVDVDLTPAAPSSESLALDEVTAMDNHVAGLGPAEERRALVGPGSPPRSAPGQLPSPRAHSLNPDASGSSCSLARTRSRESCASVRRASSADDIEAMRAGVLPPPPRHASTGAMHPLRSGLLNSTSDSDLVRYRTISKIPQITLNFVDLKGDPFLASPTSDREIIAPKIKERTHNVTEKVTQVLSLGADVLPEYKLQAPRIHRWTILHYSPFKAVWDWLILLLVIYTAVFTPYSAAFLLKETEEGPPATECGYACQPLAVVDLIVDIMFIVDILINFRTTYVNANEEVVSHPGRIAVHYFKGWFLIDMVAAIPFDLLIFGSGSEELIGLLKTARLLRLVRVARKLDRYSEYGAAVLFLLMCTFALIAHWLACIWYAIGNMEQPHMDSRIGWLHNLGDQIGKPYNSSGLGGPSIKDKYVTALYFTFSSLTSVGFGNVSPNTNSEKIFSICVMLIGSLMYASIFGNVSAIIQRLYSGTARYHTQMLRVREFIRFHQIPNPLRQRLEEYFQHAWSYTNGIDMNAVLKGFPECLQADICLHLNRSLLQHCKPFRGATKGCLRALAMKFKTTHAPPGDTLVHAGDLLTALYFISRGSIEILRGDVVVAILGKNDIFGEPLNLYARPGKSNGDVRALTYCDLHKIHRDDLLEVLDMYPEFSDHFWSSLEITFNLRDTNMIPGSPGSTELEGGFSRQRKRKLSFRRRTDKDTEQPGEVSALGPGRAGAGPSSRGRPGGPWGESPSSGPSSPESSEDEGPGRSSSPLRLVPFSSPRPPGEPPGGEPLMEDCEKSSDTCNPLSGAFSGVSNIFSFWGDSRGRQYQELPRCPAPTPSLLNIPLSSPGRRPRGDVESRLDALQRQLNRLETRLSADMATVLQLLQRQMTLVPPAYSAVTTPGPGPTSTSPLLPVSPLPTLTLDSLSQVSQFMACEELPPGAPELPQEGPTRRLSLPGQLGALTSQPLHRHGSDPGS

In order of falling “hERG current change (%, negative = inhibition) at 1uM” value:
1. CCC(C)C(=O)N1CCc2cc(-c3csc(N)n3)ccc21 (stereo not drawn)  20.8%
2. CC[C@@]1(c2ccccc2C)C(=O)N(C(=O)OC)N1C(=O)OC  16.9%
3. Cc1cccc(N2C(=O)/C(=C/c3cccnc3)SC2=S)c1  16.8%
4. COc1ccc(NC(=O)CCC(=O)Nc2nnc(C3CCCCC3)s2)c(OC)c1  15.9%
5. Cc1ccc(S(=O)(=O)NC(C)C(=O)Nc2ccccc2C(=O)N2CCCC2)cc1 (stereo not drawn)  15.8%
6. O=C(c1ccc2oc(CCCc3ccccc3)nc2c1)N1CCCCC1CO (stereo not drawn)  15.1%
7. Cc1c([N+](=O)[O-])cc(S(=O)(=O)Nc2ccncc2)cc1[N+](=O)[O-]  15%
8. COc1cccc(NC(=O)CN(c2ccc([N+](=O)[O-])cc2)S(=O)(=O)c2ccccc2)c1  14.8%
9. Cc1cc(Oc2ccc([N+](=O)[O-])cc2)nc(N2CCOCC2)n1  14.8%
10. CCS(=O)(=O)c1nc(NC(C)=O)n[nH]1  14.7%
11. Cc1cccc(Nc2nccc(N(C)C)c2C#N)c1  14.3%
12. CCOc1cccc2cc(C(=O)NCc3ccccc3Cl)c(=O)oc12  14.2%
13. O=C(NNC(=O)c1sc2cccc(Cl)c2c1Cl)Nc1ccccc1  13.9%
14. Cc1ccc(C(=O)NCC(=O)N2CCN(c3ccccc3)CC2)cc1  13.7%
15. O=C(NCc1ccc2c(c1)OCO2)c1ccc(CN2CCOCC2)cc1  13.7%
16. O=c1oc2ccccc2cc1-c1csc(Nc2nc3ccc(F)cc3s2)n1  13.6%
17. N#C/C(=C\c1cc2c(cc1Br)OCO2)c1ccc(C(=O)O)cc1  13.6%
18. Cc1cc(C)n(CC(C)O)c(=O)c1C#N (stereo not drawn)  13.3%
19. N#Cc1cc2c(N)c(C(=O)Nc3ccccc3)sc2nc1N  13.3%
20. Cc1ccc(NC(=O)CN(C)C(=O)COc2cccc3cccnc23)cc1  13.2%
21. Cc1ccsc1C(=O)NCCc1nnc2ccccn12  13.1%
22. CCCc1nc([N+](=O)[O-])c(S(=O)(=O)c2ccccc2)n1CC(C)C  12.8%
23. Cc1ccc(S(=O)(=O)N2C(=O)C(C)SC2=Nc2ccccc2)cc1 (stereo not drawn)  12.1%
24. CCN1CCN(CC(=O)Nc2ccc(C)cc2C)C(=O)C1=O  11.9%
25. Cc1cccc(C)c1OCC(=O)Nc1cccc(S(=O)(=O)N2CCCC2)c1  11.1%
26. CCC(C)C(NC(N)=O)C(=O)Nc1ccc(OCc2ccccc2)cc1 (stereo not drawn)  11%
27. CCOC(=O)c1sc(NC(=O)c2ccccc2C(=O)O)c(C(=O)OCC)c1C  10.9%
28. CN(C)CCCN(C(=O)CCc1ccccc1)c1nc2ccc(Br)cc2s1.Cl  10.7%
29. NC(=O)c1ccsc1NC(=O)COC(=O)c1nc(Cl)ccc1Cl  10.4%
30. CCOC(=O)C1CCN(Cc2ccc(O)c3ncccc23)CC1  10.4%
31. O=C(CN1C(=O)c2ccc([N+](=O)[O-])cc2C1=O)NCC1CCCO1 (stereo not drawn)  10.3%
32. Cc1ccccc1NC(=S)NNc1ncc(C(F)(F)F)cc1Cl  10.2%
33. COc1ccc(NC(=O)c2cc3n(n2)C(C(F)(F)F)CC(c2ccc(OC)cc2)N3)cc1 (stereo not drawn)  10.2%
34. Cc1cc(NC(=O)c2ccc(S(=O)(=O)N(C)CC3CCCO3)cc2)no1 (stereo not drawn)  10%
35. Cc1cccc(NC(=O)C2CC(=O)N/C(=N/N=C/c3ccco3)S2)c1 (stereo not drawn)  9.65%
36. O=C(Nc1cccnc1)c1ccc2c(c1)C(=O)N(CC1CCCO1)C2=O (stereo not drawn)  9.2%
37. COc1cc2c(=O)n(CCC(=O)NCC3CCCO3)c(=O)n(CC(=O)c3ccc(Cl)cc3)c2cc1OC (stereo not drawn)  8.95%
38. CCc1nc(C)cn1S(=O)(=O)c1cc(OC)c(C)cc1C  8.94%
39. O=C(CN1C(=O)c2cccc3cccc(c23)C1=O)N1CCOCC1  8.88%
40. COc1ccc(C(=O)C(Cc2cc(C(C)=O)ccc2OC)N2CCCC2)cc1 (stereo not drawn)  8.78%
41. CC(=O)Nc1ccc(NC(=O)Cn2cnc(S(=O)(=O)N3CCOCC3)c2)cc1  8.7%
42. COc1ccccc1-n1cc(C(=O)c2cc(Cl)ccc2O)cc(C#N)c1=O  8.64%
43. O=C(CSc1ncccn1)N1CCc2ccccc2C1  8.6%
44. CC(=O)C1=C(C)NC(C)=C(C(C)=O)C1c1cn(-c2ccccc2)nc1-c1cccs1  8.37%
45. Cc1cc(NC(=O)CSc2nnc(-c3cccs3)n2N)no1  7.87%
46. Cn1c(SCC(=O)NC2(C#N)CCCCC2)nnc1-c1cccnc1  7.68%
47. Cc1nn2c(-c3ccccc3)ccnc2c1-c1ccccc1  7.57%
48. CCOC(=O)C(NS(=O)(=O)c1ccccc1)(C(F)(F)F)P(=O)(OCC(C)C)OCC(C)C (stereo not drawn)  7.35%
49. Cc1ccc(NC(=O)c2cccnc2C(=O)O)nc1  7.25%
50. O=c1cc(-c2c(O)c3ccccc3n(Cc3ccccc3)c2=O)[nH][nH]1  6.99%
51. CC(C)NS(=O)(=O)c1ccc(OCC(=O)Nc2ccc(F)cc2F)cc1  6.77%
52. CCOC(=O)Cc1cc(=O)[nH]c(/N=C(/NC(=O)c2ccccc2)Nc2ccccc2C(F)(F)F)n1  6.61%
53. COc1ccccc1N1CCN(S(=O)(=O)c2ccc3c(c2)NC(=O)C(C)C(=O)N3)CC1 (stereo not drawn)  6.48%
54. CCCCN(C(=O)CSc1nnc(-c2ccccc2)n1C)c1c(N)n(Cc2ccccc2)c(=O)[nH]c1=O  6.42%
55. COc1cccc(NC(=O)C(Sc2nnc(Nc3ccccc3C)s2)c2ccccc2)c1 (stereo not drawn)  6.4%
56. O=C(Nc1ccccc1Br)C1CCCN1S(=O)(=O)c1cccc2nsnc12 (stereo not drawn)  6%
57. O=C(CCN1C(=O)C2C3C=CC(C3)C2C1=O)Nc1nccs1 (stereo not drawn)  5.91%
58. CC1CN=C2C(C(=O)Nc3ccccc3)=C(O)CC(c3ccccc3)N21 (stereo not drawn)  5.43%
59. COc1ccccc1C1CCN(C(=O)c2cccc([N+](=O)[O-])c2)CC1  5.11%
60. CCOc1ccc2c(c1)C(N(CCN1CCOCC1)C(=O)Nc1ccc(OC)cc1OC)CC(C)(C)O2 (stereo not drawn)  4.51%
61. O=C(c1cc2cc([N+](=O)[O-])ccc2oc1=O)n1cccn1  4.15%
62. CCCCCc1ccc(-c2ccc(OC)cc2)nc1  4.09%
63. O=C(COC(=O)C1CCN(c2ccc(C(F)(F)F)cn2)CC1)NCCc1ccccc1  4.05%
64. COC(=O)[C@@H](NC(=O)Nc1ccc(OC(F)(F)F)cc1)C(C)C  3.79%
65. Cc1nnc(SCCn2c(Br)nc3c2c(=O)n(C)c(=O)n3C)s1  3.38%
66. CC(Oc1ccccc1F)C(=O)NNC(=O)CCNC(=O)c1ccco1 (stereo not drawn)  3.18%
67. CN(C(=O)c1cc2ccccc2cc1O)C1CCCCC1  2.13%
68. Cn1cc(S(=O)(=O)N2CCCC2)cc1C(=O)NCc1ccccc1Cl  1.96%
69. COc1ccc(C(=O)Nc2cccc(S(=O)(=O)NC3=NCCCCC3)c2)cc1  1.72%
70. CN1C[C@H](C(=O)N[C@]2(C)O[C@@]3(O)[C@@H]4CCCN4C(=O)[C@H](Cc4ccccc4)N3C2=O)CC2c3cccc4[nH]cc(c34)C[C@H]21.CS(=O)(=O)O (stereo partly drawn)  1.02%
71. CC(C)CCN1CCN(Cc2ccon2)CC1CCO (stereo not drawn)  0.787%
72. Cc1ccc(NC(=O)COc2cccc(C)c2C)cc1S(=O)(=O)N1CCCCCC1  0.574%
73. CCOC(=O)C(=O)Nc1ccccc1C(=O)OCC  0.567%
74. CCC(C(=O)NCc1ccc(OC)cc1)n1nc(C)n2c(cc3occc32)c1=O (stereo not drawn)  -0.164%
75. COCCCNC(=O)c1oc2ccc(S(=O)(=O)N3CCOCC3)cc2c1C  -1.13%
76. COCCNC(=O)C1CC(=O)N(c2ccc(OC)cc2)C1c1ccc(OC)cc1 (stereo not drawn)  -1.35%
77. CCOC(=O)COc1ccc2c(c1)C(=O)CC1(CCN(C(C)=O)CC1)O2  -1.98%
78. O=C1C2C3C=CC(C3)C2C(=O)N1Cc1ccccc1 (stereo not drawn)  -2.1%
79. O=[N+]([O-])c1ccc(-c2cc(-c3ccc(Cl)cc3)n[nH]2)cc1  -2.59%
80. OC(COc1ccc2ccccc2c1Br)Cn1ccnc1 (stereo not drawn)  -2.77%
81. Cc1cccnc1Nc1nc(-c2ccc(O)cc2O)cs1  -5.47%
82. O=C1CSC(=O)N1CC(O)COc1ccc(Cl)cc1 (stereo not drawn)  -5.87%
83. FC(F)C(F)(F)C1=CC(c2cccs2)=NCCN1  -7.04%
84. Fc1ccc(Cn2nnnc2CN2CCN(C3CCCCC3)CC2)cc1  -8.68%
85. COc1ccc(C(=O)NC(=S)N2CCCCC2c2cccnc2)cc1OC (stereo not drawn)  -8.95%
86. Cc1ccccc1N1CCN(C2CCCN(C(=O)CCC3(C)CC3)C2)CC1 (stereo not drawn)  -15.1%
87. Cl.ON=C1c2cc(OCCN3CCCCC3)ccc2-c2ccc(OCCN3CCCCC3)cc21  -17.2%
